The supplement of paper PMC3334620
Over roughly 33,000 sequences, “E-score (-0.5 to 0.5)” has its median near -0.011; the highest 2% begin near 0.28. The list shows a part of the results.

These sequences were tested against T1, Gcr1 (UniProt P07261) (assay: PBM E-score (8-mer binding enrichment) (E-score (-0.5 to 0.5)); higher = stronger / more preferred TF binding; most listed sequences are background and not binding sites). Settings: protein concentration: 100 nM; construct: GST-full length.
T1 sequence: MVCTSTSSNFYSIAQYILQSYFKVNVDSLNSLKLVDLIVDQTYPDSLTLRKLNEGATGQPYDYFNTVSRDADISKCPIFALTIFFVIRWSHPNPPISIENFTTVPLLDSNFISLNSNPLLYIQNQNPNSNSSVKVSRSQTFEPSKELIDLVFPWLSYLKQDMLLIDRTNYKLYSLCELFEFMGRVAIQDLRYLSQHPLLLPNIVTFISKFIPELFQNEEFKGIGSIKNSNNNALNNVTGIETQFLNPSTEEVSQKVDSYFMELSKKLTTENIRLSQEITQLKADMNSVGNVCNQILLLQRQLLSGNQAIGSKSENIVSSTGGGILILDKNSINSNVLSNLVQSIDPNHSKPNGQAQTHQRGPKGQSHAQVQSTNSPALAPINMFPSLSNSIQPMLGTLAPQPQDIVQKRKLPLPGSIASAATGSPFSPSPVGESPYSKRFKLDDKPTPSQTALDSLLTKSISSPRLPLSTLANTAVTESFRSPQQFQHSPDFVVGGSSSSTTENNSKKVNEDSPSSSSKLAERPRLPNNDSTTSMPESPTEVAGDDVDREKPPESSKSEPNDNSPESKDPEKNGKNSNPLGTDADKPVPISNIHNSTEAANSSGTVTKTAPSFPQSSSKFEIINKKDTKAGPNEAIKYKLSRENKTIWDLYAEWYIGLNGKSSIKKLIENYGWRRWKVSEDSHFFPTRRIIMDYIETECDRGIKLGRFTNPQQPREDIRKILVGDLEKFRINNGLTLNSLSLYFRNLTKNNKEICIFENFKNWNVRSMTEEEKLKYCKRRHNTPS
Protocol: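 Universal 'all 10-mer' protein binding microarrays (Agilent AMADID 015681) probed with GST-tagged S. cerevisiae TFs (full-length or DBD) made by in vitro transcription/translation (PURExpress), about 100-200 nM. Bound TF was detected with fluorescent anti-GST. Each ungapped 8-mer (which stands for itself and its reverse complement) is scored by the PBM enrichment score (E-score), a modified Wilcoxon-Mann-Whitney statistic from -0.5 to +0.5, computed with the Universal PBM Analysis Suite. Scale: above 0.35 generally sequence-specific binding.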

| Sequence | PBM E-score |
| --- | --- |
| AAACGCGA | 0.0977 |
| ATCGCCAT | 0.0406 |
| ATCCGCTC | 0.0142 |
| GGCTACTA | 0.219 |
| CTCGATGC | 0.0719 |
| CATATCTC | -0.117 |
| CACTCCGC | -0.03 |
| ACTTTCAG | 0.146 |
| GCACTCCA | 0.0798 |
| GCCGAGAC | -0.178 |
| CAGACAGA | 0.105 |
| CATCCCAA | 0.157 |
| GGTACGAC | 0.0145 |
| ACGATCAT | -0.153 |
| GTCGGCAC | -0.0231 |
| ACGAATGC | 0.0335 |
| ACTTTTCA | 0.0489 |
| CCACTGGG | 0.0562 |
| CCTTTGTA | -0.145 |
| AGGCAATC | -0.245 |
| AGCCCAAT | 0.0294 |
| ATCGCTTG | -0.125 |
| CGGGATCA | 0.245 |
| AAGTACGT | 0.0204 |
| CAGGGTAA | -0.0675 |

| Sequence | PBM E-score |
| --- | --- |
| CCTACTAG | -0.0738 |
| CAGGATCA | -0.179 |
| CGCGGACC | -0.0237 |
| GGTCAAGA | -0.126 |
| AGTGGATC | 0.286 |
| ATATGGCG | 0.0803 |
| CGGACATC | -0.115 |
| CGCCGAAA | 0.0678 |
| TATGGAAA | 0.11 |
| CACGTGAA | -0.183 |
| AGCACACG | 0.0528 |
| AAAATAAC | 0.0829 |
| CGCAAGAG | -0.122 |
| ACGGTACT | -0.17 |
| GGATAGAC | -0.167 |
| GGGGCTAC | -0.0272 |
| ACCTACAT | 0.0339 |
| AAACACAC | 0.115 |
| AAGCGATC | -0.135 |
| TAATCCTA | -0.0173 |
| AACATGAT | -0.0565 |
| CACGAACC | 0.0284 |
| CAAGAAGA | 0.354 |
| AAGAGTGT | -0.0692 |
| AAAACCCG | 0.108 |

| Sequence | PBM E-score |
| --- | --- |
| CTATTCAC | 0.144 |
| CAGCAATC | -0.0724 |
| TGGTACCA | 0.0139 |
| ACGACATG | -0.0755 |
| ACATCACT | 0.0558 |
| CATCAACG | 0.00203 |
| GATAGGAC | -0.026 |
| GGGTTAGA | -0.142 |
| CTGACAGC | 0.0553 |
| CTCGCACA | -0.0353 |
| GCTGGGGA | -0.145 |
| GCATTACA | -0.0224 |
| CAAAAACC | 0.115 |
| GGCCAAGA | -0.0957 |
| CGTGAGAG | -0.241 |
| CCCTGCAG | -0.00869 |
| CCTTCACG | -0.0299 |
| AACTAAGT | 0.0546 |
| CGTTTTGC | 0.0543 |
| ATGTGTCC | -0.156 |
| GGCTGGAA | -0.0155 |
| CCAAAGTC | 0.0913 |
| ACGAGTTG | 0.0727 |
| ACGCGTTA | -0.0814 |
| GTTTATCA | 0.103 |

| Sequence | PBM E-score |
| --- | --- |
| ACCGAGCA | -0.142 |
| ACTCGCCA | -0.204 |
| ATCACCGC | 0.00572 |
| AGTTAGAT | -0.153 |
| AGAGACTG | -0.163 |
| GGAATGCA | 0.129 |
| CGCGCGGA | -0.0886 |
| CTCGCCTC | -0.252 |
| CTGCTCGC | -0.089 |
| CTGGATAC | 0.135 |
| CTTAGAAA | 0.0884 |
| GGTTAGAC | -0.16 |
| AACCTCGG | -0.05 |
| GGGCGAAA | -0.0628 |
| TAGCAGGA | -0.0539 |
| AAGTTCTG | 0.00543 |
| CAGAGACC | -0.036 |
| AATAGAAG | 0.206 |
| ATTCTGCC | -0.0536 |
| ACGTAATA | 0.0685 |
| GGCCCTTA | -0.0164 |
| CTCTTCGC | -0.103 |
| CAGGGGAG | 0.191 |
| CGGTTACG | 0.063 |
| CACTTAGG | 0.0326 |

| Sequence | PBM E-score |
| --- | --- |
| ATTATAGA | 0.11 |
| CTGAAGCA | -0.171 |
| ACAAAAGG | -0.0382 |
| CCGCATCC | 0.31 |
| TAGCCTGA | -0.232 |
| CTACCCAG | -0.0746 |
| GCAACTCA | -0.0076 |
| ACAATAAC | 0.117 |
| CCGGCGAC | 0.0114 |
| AGGGTTCC | 0.312 |
| ACTAGAAC | 0.096 |
| ATGTGAGG | -0.0741 |
| GAATTTTA | 0.142 |
| AGGGGGAT | -0.101 |
| CTCATAGC | -0.0196 |
| ACTTGCCA | -0.0232 |
| AACACGAT | 0.153 |
| AATCGCAC | -0.198 |
| ATTGGGTA | 0.0705 |
| GAAAACGC | -0.167 |
| CCACAGAA | -0.0106 |
| GATCGATA | -0.107 |
| GGTACATA | 0.0063 |
| ATTTATTC | 0.0157 |
| GTGCACAC | -0.273 |

| Sequence | PBM E-score |
| --- | --- |
| CAACAAAC | -0.031 |
| TAGCCCAA | 0.0287 |
| GAACTATC | -0.0331 |
| CAGAACCG | 0.106 |
| CTAATCCA | 0.153 |
| ATAGCGCG | -0.0481 |
| CCGCCACC | 0.0145 |
| ACTCTGCG | 0.0871 |
| ACACTCTG | -0.0677 |
| ATGCGGAC | -0.207 |
| CGTCAATA | 0.0371 |
| ACAGTGAC | -0.204 |
| CATCGGCG | -0.0746 |
| TTCGCCAA | 0.0203 |
| CTGGTACC | 0.121 |
| GCTTCTCC | 0.27 |
| AGCACTGC | -0.377 |
| AAGTCAGC | 0.0011 |
| AATTTCGG | 0.129 |
| ACTGTCCT | -0.18 |
| AAATTTTG | 0.088 |
| AATACCAC | 0.097 |
| ATTGCCAG | -0.0225 |
| ATAGTACC | -0.0805 |
| GCATAAGA | -0.0473 |

| Sequence | PBM E-score |
| --- | --- |
| CTCGGCTA | -0.0839 |
| CTCTGGAC | 0.0684 |
| AGACTCGA | -0.032 |
| ATTTGGCG | 0.175 |
| GGTACCAC | 0.0105 |
| AGGCCGAC | -0.162 |
| TTGGCCAA | -0.203 |
| AGCACAGC | -0.0849 |
| AAGAGTAT | -0.118 |
| TCGCTAGA | -0.00814 |
| AAGGTTCA | -0.179 |
| TGGCTTAA | 0.0227 |
| CAGAACAC | -0.107 |
| TAACTCTA | -0.0602 |
| GCGCTAGA | -0.0867 |
| CCTGTGGC | 0.14 |
| AAGCCTGG | -0.107 |
| ATGGATCA | -0.201 |
| AACAGGCT | 0.0848 |
| CACAAGAC | 0.0989 |
| CATATCCA | -0.129 |
| CTGTCCGA | -0.154 |
